Test results from paper PMC9911399, “Two distinct binding modes provide the RNA-binding protein RbFox with extraordinary sequence specificity”.
Numbering of substitutions follows the chain as printed; changes in the protein carry UniProt numbers. The list shows a part of the results.

T1: RBFOX1 RRM RbFoxmut (Fox-RRM*) (Homo sapiens, UniProt Q9NWB1 109-208, R118D;E147R;N151S;E152T)
T1 sequence: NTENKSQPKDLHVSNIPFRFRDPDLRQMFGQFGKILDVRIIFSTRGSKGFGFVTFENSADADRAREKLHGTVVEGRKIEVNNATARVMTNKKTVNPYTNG

B1: CAGGACA (DNA:RNA)
RNA: GGGAGACCGGAAUUCAGAUUGUCCCAGGACAUUAAAUCCCGUCGUAGCCACCA
DNA 1: CAATCTGAATTCCGGTCTCCC
DNA 2: TGGTGGCTACGACGGGATT
B2: UACGGGU (DNA:RNA)
RNA: B1 RNA with C25U, G27C, A29G, C30G, A31U
DNA 1: CAATCTGAATTCCGGTCTCCC
DNA 2: TGGTGGCTACGACGGGATT
B3: UAUCUUG (DNA:RNA)
RNA: B1 RNA with C25U, G27U, G28C, A29U, C30U, A31G
DNA 1: CAATCTGAATTCCGGTCTCCC
DNA 2: TGGTGGCTACGACGGGATT
B4: GGGCACU (DNA:RNA)
RNA: B1 RNA with C25G, A26G, G28C, A31U
DNA 1: CAATCTGAATTCCGGTCTCCC
DNA 2: TGGTGGCTACGACGGGATT
B5: AGGAGUA (DNA:RNA)
RNA: B1 RNA with C25A, A26G, G28A, A29G, C30U
DNA 1: CAATCTGAATTCCGGTCTCCC
DNA 2: TGGTGGCTACGACGGGATT
B6: UUGACUC (DNA:RNA)
RNA: B1 RNA with C25U, A26U, G28A, A29C, C30U, A31C
DNA 1: CAATCTGAATTCCGGTCTCCC
DNA 2: TGGTGGCTACGACGGGATT
B7: GCGUAUC (DNA:RNA)
RNA: B1 RNA with C25G, A26C, G28U, C30U, A31C
DNA 1: CAATCTGAATTCCGGTCTCCC
DNA 2: TGGTGGCTACGACGGGATT
B8: CCACUAG (DNA:RNA)
RNA: B1 RNA with A26C, G27A, G28C, A29U, C30A, A31G
DNA 1: CAATCTGAATTCCGGTCTCCC
DNA 2: TGGTGGCTACGACGGGATT
B9: ACCUGCA (DNA:RNA)
RNA: B1 RNA with C25A, A26C, G27C, G28U, A29G
DNA 1: CAATCTGAATTCCGGTCTCCC
DNA 2: TGGTGGCTACGACGGGATT
B10: CUACCCC (DNA:RNA)
RNA: B1 RNA with A26U, G27A, G28C, A29C, A31C
DNA 1: CAATCTGAATTCCGGTCTCCC
DNA 2: TGGTGGCTACGACGGGATT
B11: CGUACAU (DNA:RNA)
RNA: B1 RNA with A26G, G27U, G28A, A29C, C30A, A31U
DNA 1: CAATCTGAATTCCGGTCTCCC
DNA 2: TGGTGGCTACGACGGGATT
B12: AGAAAUC (DNA:RNA)
RNA: B1 RNA with C25A, A26G, G27A, G28A, C30U, A31C
DNA 1: CAATCTGAATTCCGGTCTCCC
DNA 2: TGGTGGCTACGACGGGATT
B13: GACGUCG (DNA:RNA)
RNA: B1 RNA with C25G, G27C, A29U, A31G
DNA 1: CAATCTGAATTCCGGTCTCCC
DNA 2: TGGTGGCTACGACGGGATT
B14: UCCGUUU (DNA:RNA)
RNA: B1 RNA with C25U, A26C, G27C, A29U, C30U, A31U
DNA 1: CAATCTGAATTCCGGTCTCCC
DNA 2: TGGTGGCTACGACGGGATT
B15: AAGCUUU (DNA:RNA)
RNA: B1 RNA with C25A, G28C, A29U, C30U, A31U
DNA 1: CAATCTGAATTCCGGTCTCCC
DNA 2: TGGTGGCTACGACGGGATT
B16: UGCAAAC (DNA:RNA)
RNA: B1 RNA with C25U, A26G, G27C, G28A, C30A, A31C
DNA 1: CAATCTGAATTCCGGTCTCCC
DNA 2: TGGTGGCTACGACGGGATT
B17: AUCCCGA (DNA:RNA)
RNA: B1 RNA with C25A, A26U, G27C, G28C, A29C, C30G
DNA 1: CAATCTGAATTCCGGTCTCCC
DNA 2: TGGTGGCTACGACGGGATT
B18: AAUACCC (DNA:RNA)
RNA: B1 RNA with C25A, G27U, G28A, A29C, A31C
DNA 1: CAATCTGAATTCCGGTCTCCC
DNA 2: TGGTGGCTACGACGGGATT
B19: UCUCACG (DNA:RNA)
RNA: B1 RNA with C25U, A26C, G27U, G28C, A31G
DNA 1: CAATCTGAATTCCGGTCTCCC
DNA 2: TGGTGGCTACGACGGGATT
B20: AACUUCA (DNA:RNA)
RNA: B1 RNA with C25A, G27C, G28U, A29U
DNA 1: CAATCTGAATTCCGGTCTCCC
DNA 2: TGGTGGCTACGACGGGATT

target: T1, RBFOX1 RRM RbFoxmut (Fox-RRM*); test: EMSA; HiTS-Eq, 1 nM pool, 10 min; buffer printed only for the single-RNA assays: 10 mM Tris pH 7.5, 150 mM NaCl, 3.4 mM EDTA, 0.001% NP-40, 30 C; conditions: tags: His6 N-terminal (pET28a); label: 5' 32P
Method in brief: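 Purified RbFox RRM, wild type or mutant, was incubated for 10 min in 50 µL with 1 nM of a 5′-radiolabelled RNA pool carrying 7 randomized nucleotides, whose flanks were annealed to DNA oligonucleotides, over a series of increasing protein concentrations. Unbound RNA was resolved on 8% native PAGE, cut out, reverse-transcribed, barcoded by PCR and sequenced on an Illumina HiSeq 2500. Relative association constants were derived from changes in read counts for each RNA species versus the control reaction and normalised to the cognate motif.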

Q: For B1, which binding signal is on record?
A: The binding signal was 0.0416 KA relative to UGCAUGU.

Q: How did the binding signal turn out when B2 was run?
A: The binding signal was 0.09 KA relative to UGCAUGU.

Q: How did the binding signal turn out when B3 was run?
A: Its binding signal is 0.0958 KA relative to UGCAUGU.

Q: B4 was tested. Which binding signal did it give?
A: The binding signal was 0.0517 KA relative to UGCAUGU.

Q: With B5 as the binder, how does the binding signal read?
A: Its binding signal is 0.168 KA relative to UGCAUGU.

Q: B6 was tested. Which binding signal did it give?
A: The binding signal was 0.0703 KA relative to UGCAUGU.

Q: For B7, which binding signal is on record?
A: The binding signal was 0.194 KA relative to UGCAUGU.

Q: How did the binding signal turn out when B8 was run?
A: The binding signal was 0.106 KA relative to UGCAUGU.

Q: How did the binding signal turn out when B9 was run?
A: Its binding signal is 0.198 KA relative to UGCAUGU.

Q: For B10, which binding signal is on record?
A: The binding signal was 0.057 KA relative to UGCAUGU.

Q: How did the binding signal turn out when B11 was run?
A: The binding signal was 0.0548 KA relative to UGCAUGU.

Q: Which binding signal does the source give for B12 here?
A: Its binding signal is 0.0464 KA relative to UGCAUGU.

Q: For B13, which binding signal is on record?
A: The binding signal was 0.123 KA relative to UGCAUGU.

Q: With B14 as the binder, how does the binding signal read?
A: Its binding signal is 0.0695 KA relative to UGCAUGU.

Q: B15 was tested. Which binding signal did it give?
A: The binding signal was 0.0764 KA relative to UGCAUGU.

Q: With B16 as the binder, how does the binding signal read?
A: The binding signal was 0.0759 KA relative to UGCAUGU.

Q: How did the binding signal turn out when B17 was run?
A: The binding signal was 0.0862 KA relative to UGCAUGU.

Q: How did the binding signal turn out when B18 was run?
A: Its binding signal is 0.0723 KA relative to UGCAUGU.

Q: How did the binding signal turn out when B19 was run?
A: Its binding signal is 0.123 KA relative to UGCAUGU.

Q: Which binding signal does the source give for B20 here?
A: Its binding signal is 0.121 KA relative to UGCAUGU.
